Experimental data from the supplement of paper PMC12217912.
This is one part of the list. Sequences were assembled here from the parent chain. Inactive controls read about 0.05.

B1: TEV protease; numbered along this chain (parent)
chain: MGESLFKGPRDYNPISSSICHLTNESDGHTTSLYGIGFGPFIITNKHLFRRNNGTLVVQSLHGVFKVKDTTTLQQHLVDGRDMIIIRMPKDFPPFPQKLKFREPQREERICLVTTNFQTKSMSSMVSDTSCTFPSGDGIFWKHWIQTKDGQCGSPLVSTRDGFIVGIHSASNFTNTNNYFTSVPKNFMELLTNQEAQQWVSGWRLNADSVLWGGHKVFMVKPEEPFQPVKEATQL

Variants of: B1
Test: raw area under fraction-flipped curve 0-4 h after induction (AUC4h, not background-subtracted), DNA-recorder readout of cleavage of the substrate (dimensionless); higher = more cleavage of the substrate by the protease variant
Conditions: temperature: 34 °C; time window: 0-4 h after rhamnose induction
Description: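 In vivo DNA recorder in E. coli TOP10(DE3) ΔrhaA at 34 °C. Each TEVp single-site mutant (parent TEVp 0) is paired with a single-site variant of the 7-mer TEVs (canonical ENLYFQ|S). The substrate sits between flexible linkers in a Bxb1-sfGFP-TEVs-SsrA fusion, so cleavage stabilises Bxb1 and speeds flipping of a recombination array, read by NGS. The value is the raw area under the fraction-flipped curve over 0-4 h after rhamnose induction (AUC4h), with ≥20 reads per time point. It is not background-subtracted; inactive controls average about 0.047.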
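Also: Bxb1 expression induced with 0.2% (w/v) L-rhamnose at OD600 near 0.5, cultures sampled hourly, flipped fraction per protease–substrate barcode pair counted by paired-end Illumina sequencing.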

Row | Variant | area with substrate CNLYFQS | area with substrate DNLYFQS | area with substrate FNLYFQS | area with substrate GNLYFQS | area with substrate HNLYFQS | area with substrate INLYFQS | area with substrate KNLYFQS | area with substrate LNLYFQS | area with substrate MNLYFQS | area with substrate NNLYFQS | area with substrate PNLYFQS | area with substrate SNLYFQS | area with substrate TNLYFQS | area with substrate WNLYFQS | area with substrate YNLYFQS | area with substrate VNLYFQS | area with substrate QNLYFQS | area with substrate RNLYFQS
1 | MGESLFKGPRDYNPISSSICHLTNESDGHTTSLYGIGFGPFIITNKHLFRRNNGTLVVQSLHGVFKVKDTTTLQQHLVDGRDMIIIRMPKDFPPFPQKLKFREPQREERICLVTTPFQTKSMSSMVSDTSCTFPSGDGIFWKHWIQTKDGQCGSPLVSTRDGFIVGIHSASNFTNTNNYFTSVPKNFMELLTNQEAQQWVSGWRLNADSVLWGGHKVFMVKPEEPFQPVKEATQL [N116P] | 0.0809 | 0.0766 | 0.0696 | 0.073 | 0.0656 | 0.0877 | 0.0719 | 0.0524 | 0.0768 | 0.0561 | 0.0672 | 0.0105 | 0.0649 | 0.0561 | 0.0595 |  |  | 
2 | MGESLFKGPRDYNPISSSICHLTNESDGHTTSLYGIGFGPFIITNKHLFRRNNGTLVVQSLHGVFKVKDTTTLQQHLVDGRDMIIIRMPKDFPPFPQKLKFREPQREERICLVTTYFQTKSMSSMVSDTSCTFPSGDGIFWKHWIQTKDGQCGSPLVSTRDGFIVGIHSASNFTNTNNYFTSVPKNFMELLTNQEAQQWVSGWRLNADSVLWGGHKVFMVKPEEPFQPVKEATQL [N116Y] | 0.065 | 0.0731 | 0.0593 | 0.0608 | 0.0512 |  | 0.0802 |  | 0.0687 |  | 0.0498 | 0.0677 | 0.0621 |  | 0.043 | 0.0683 |  | 
3 | MGESLFKGPRDYNPISSSICHLTNESDGHTTSLYGIGFGPFIITNKHLFRRNNGTLVVQSLHGVFKVKDTTTLQQHLVDGRDMIIIRMPKDFPPFPQKLKFREPQREERICLVTTNEQTKSMSSMVSDTSCTFPSGDGIFWKHWIQTKDGQCGSPLVSTRDGFIVGIHSASNFTNTNNYFTSVPKNFMELLTNQEAQQWVSGWRLNADSVLWGGHKVFMVKPEEPFQPVKEATQL [F117E] | 0.0673 | 0.0722 | 0.0595 | 0.0561 | 0.0676 |  | 0.0586 | 0.0645 |  |  | 0.0767 | 0.0671 | 0.0692 | 0.0662 | 0.0582 |  |  | 
4 | MGESLFKGPRDYNPISSSICHLTNESDGHTTSLYGIGFGPFIITNKHLFRRNNGTLVVQSLHGVFKVKDTTTLQQHLVDGRDMIIIRMPKDFPPFPQKLKFREPQREERICLVTTNFYTKSMSSMVSDTSCTFPSGDGIFWKHWIQTKDGQCGSPLVSTRDGFIVGIHSASNFTNTNNYFTSVPKNFMELLTNQEAQQWVSGWRLNADSVLWGGHKVFMVKPEEPFQPVKEATQL [Q118Y] | 0.0703 | 0.0754 | 0.0427 | 0.0513 | 0.0665 |  | 0.087 |  | 0.0895 | 0.0937 |  |  |  | 0.0491 |  |  | 0.0484 | 
5 | MGESLFKGPRDYNPISSSICHLTNESDGHTTSLYGIGFGPFIITNKHLFRRNNGTLVVQSLHGVFKVKDTTTLQQHLVDGRDMIIIRMPKDFPPFPQKLKFREPQREERICLVTTNFQTKIMSSMVSDTSCTFPSGDGIFWKHWIQTKDGQCGSPLVSTRDGFIVGIHSASNFTNTNNYFTSVPKNFMELLTNQEAQQWVSGWRLNADSVLWGGHKVFMVKPEEPFQPVKEATQL [S121I] | 0.0732 | 0.0909 |  |  | 0.0687 | 0.058 | 0.0344 | 0.066 | 0.0957 | 0.0573 | 0.0811 | 0.0615 | 0.0649 | 0.0692 |  | 0.0619 |  | 0.0527
6 | MGESLFKGPRDYNPISSSICHLTNESDGHTTSLYGIGFGPFIITNKHLFRRNNGTLVVQSLHGVFKVKDTTTLQQHLVDGRDMIIIRMPKDFPPFPQKLKFREPQREERICLVTTNFQTKKMSSMVSDTSCTFPSGDGIFWKHWIQTKDGQCGSPLVSTRDGFIVGIHSASNFTNTNNYFTSVPKNFMELLTNQEAQQWVSGWRLNADSVLWGGHKVFMVKPEEPFQPVKEATQL [S121K] | 0.0821 | 0.0938 | 0.068 |  | 0.0594 | 0.0437 |  | 0.054 | 0.0659 | 0.0644 | 0.0753 |  | 0.0702 | 0.0386 | 0.0512 |  |  | 
7 | MGESLFKGPRDYNPISSSICHLTNESDGHTTSLYGIGFGPFIITNKHLFRRNNGTLVVQSLHGVFKVKDTTTLQQHLVDGRDMIIIRMPKDFPPFPQKLKFREPQREERICLVTTNFQTKSISSMVSDTSCTFPSGDGIFWKHWIQTKDGQCGSPLVSTRDGFIVGIHSASNFTNTNNYFTSVPKNFMELLTNQEAQQWVSGWRLNADSVLWGGHKVFMVKPEEPFQPVKEATQL [M122I] | 0.0618 | 0.0745 |  |  | 0.0475 | 0.0908 |  |  | 0.0787 | 0.0617 |  | 0.0534 | 0.0539 | 0.0597 | 0.0557 |  |  | 
8 | MGESLFKGPRDYNPISSSICHLTNESDGHTTSLYGIGFGPFIITNKHLFRRNNGTLVVQSLHGVFKVKDTTTLQQHLVDGRDMIIIRMPKDFPPFPQKLKFREPQREERICLVTTNFQTKSVSSMVSDTSCTFPSGDGIFWKHWIQTKDGQCGSPLVSTRDGFIVGIHSASNFTNTNNYFTSVPKNFMELLTNQEAQQWVSGWRLNADSVLWGGHKVFMVKPEEPFQPVKEATQL [M122V] | 0.0665 | 0.0761 |  |  | 0.0694 |  |  | 0.0571 | 0.0696 |  | 0.0614 |  | 0.0614 | 0.05 |  |  | 0.0469 | 
9 | MGESLFKGPRDYNPISSSICHLTNESDGHTTSLYGIGFGPFIITNKHLFRRNNGTLVVQSLHGVFKVKDTTTLQQHLVDGRDMIIIRMPKDFPPFPQKLKFREPQREERICLVTTNFQTKSMNSMVSDTSCTFPSGDGIFWKHWIQTKDGQCGSPLVSTRDGFIVGIHSASNFTNTNNYFTSVPKNFMELLTNQEAQQWVSGWRLNADSVLWGGHKVFMVKPEEPFQPVKEATQL [S123N] | 0.0604 | 0.0764 |  |  | 0.0639 |  | 0.0749 |  | 0.0705 |  |  | 0.0611 | 0.091 | 0.0731 | 0.0722 |  | 0.0796 | 0.0695
